# Reference: PubChem BioAssay AID504333 (National Center for Advancing Translational Sciences (NCATS), 2011)
# Screen size: about 360,000 compounds; about 16,000 (4.4%) were called active. The shares of active, inactive and inconclusive entries below differ from those in the screen. Calls come from the whole dose curve; as a rule, active = well fitted inhibition curve with a large enough effect; inconclusive = small, poorly fitted or top-dose-only effect; inactive = no such curve, though single readings can be large or run the other way. A potency beside an inconclusive call is a rough fit, not a confirmed value.
# Target: Bromodomain adjacent to zinc finger domain protein 2B (Homo sapiens) (UniProt Q9UIF8)
# Test: qHTS Assay for Inhibitors of BAZ2B; note: nearly all actives have a fitted effect of over 60% in size
# Details: AlphaScreen BAZ2B-H3K14Ac peptide displacement; series mostly up to 114 µM
# In short: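 BAZ2B (50 nM) with biotin-H3(5-23)K14Ac peptide (50 nM) in PBS pH 7.4, 0.01% Tween-20, preformed 30 min, then compound 30 min at room temperature; top concentration 110uM. AlphaScreen streptavidin donor/nickel chelate acceptor beads (10 ug/mL final), 20 min dark, signal read.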
# Potency is the fitted concentration of half-maximal effect; tags give direction and shape of the fitted curve.
# Sequence of UniProt Q9UIF8 (Q9UIF8 whole entry, looked up, the tested form may be a part): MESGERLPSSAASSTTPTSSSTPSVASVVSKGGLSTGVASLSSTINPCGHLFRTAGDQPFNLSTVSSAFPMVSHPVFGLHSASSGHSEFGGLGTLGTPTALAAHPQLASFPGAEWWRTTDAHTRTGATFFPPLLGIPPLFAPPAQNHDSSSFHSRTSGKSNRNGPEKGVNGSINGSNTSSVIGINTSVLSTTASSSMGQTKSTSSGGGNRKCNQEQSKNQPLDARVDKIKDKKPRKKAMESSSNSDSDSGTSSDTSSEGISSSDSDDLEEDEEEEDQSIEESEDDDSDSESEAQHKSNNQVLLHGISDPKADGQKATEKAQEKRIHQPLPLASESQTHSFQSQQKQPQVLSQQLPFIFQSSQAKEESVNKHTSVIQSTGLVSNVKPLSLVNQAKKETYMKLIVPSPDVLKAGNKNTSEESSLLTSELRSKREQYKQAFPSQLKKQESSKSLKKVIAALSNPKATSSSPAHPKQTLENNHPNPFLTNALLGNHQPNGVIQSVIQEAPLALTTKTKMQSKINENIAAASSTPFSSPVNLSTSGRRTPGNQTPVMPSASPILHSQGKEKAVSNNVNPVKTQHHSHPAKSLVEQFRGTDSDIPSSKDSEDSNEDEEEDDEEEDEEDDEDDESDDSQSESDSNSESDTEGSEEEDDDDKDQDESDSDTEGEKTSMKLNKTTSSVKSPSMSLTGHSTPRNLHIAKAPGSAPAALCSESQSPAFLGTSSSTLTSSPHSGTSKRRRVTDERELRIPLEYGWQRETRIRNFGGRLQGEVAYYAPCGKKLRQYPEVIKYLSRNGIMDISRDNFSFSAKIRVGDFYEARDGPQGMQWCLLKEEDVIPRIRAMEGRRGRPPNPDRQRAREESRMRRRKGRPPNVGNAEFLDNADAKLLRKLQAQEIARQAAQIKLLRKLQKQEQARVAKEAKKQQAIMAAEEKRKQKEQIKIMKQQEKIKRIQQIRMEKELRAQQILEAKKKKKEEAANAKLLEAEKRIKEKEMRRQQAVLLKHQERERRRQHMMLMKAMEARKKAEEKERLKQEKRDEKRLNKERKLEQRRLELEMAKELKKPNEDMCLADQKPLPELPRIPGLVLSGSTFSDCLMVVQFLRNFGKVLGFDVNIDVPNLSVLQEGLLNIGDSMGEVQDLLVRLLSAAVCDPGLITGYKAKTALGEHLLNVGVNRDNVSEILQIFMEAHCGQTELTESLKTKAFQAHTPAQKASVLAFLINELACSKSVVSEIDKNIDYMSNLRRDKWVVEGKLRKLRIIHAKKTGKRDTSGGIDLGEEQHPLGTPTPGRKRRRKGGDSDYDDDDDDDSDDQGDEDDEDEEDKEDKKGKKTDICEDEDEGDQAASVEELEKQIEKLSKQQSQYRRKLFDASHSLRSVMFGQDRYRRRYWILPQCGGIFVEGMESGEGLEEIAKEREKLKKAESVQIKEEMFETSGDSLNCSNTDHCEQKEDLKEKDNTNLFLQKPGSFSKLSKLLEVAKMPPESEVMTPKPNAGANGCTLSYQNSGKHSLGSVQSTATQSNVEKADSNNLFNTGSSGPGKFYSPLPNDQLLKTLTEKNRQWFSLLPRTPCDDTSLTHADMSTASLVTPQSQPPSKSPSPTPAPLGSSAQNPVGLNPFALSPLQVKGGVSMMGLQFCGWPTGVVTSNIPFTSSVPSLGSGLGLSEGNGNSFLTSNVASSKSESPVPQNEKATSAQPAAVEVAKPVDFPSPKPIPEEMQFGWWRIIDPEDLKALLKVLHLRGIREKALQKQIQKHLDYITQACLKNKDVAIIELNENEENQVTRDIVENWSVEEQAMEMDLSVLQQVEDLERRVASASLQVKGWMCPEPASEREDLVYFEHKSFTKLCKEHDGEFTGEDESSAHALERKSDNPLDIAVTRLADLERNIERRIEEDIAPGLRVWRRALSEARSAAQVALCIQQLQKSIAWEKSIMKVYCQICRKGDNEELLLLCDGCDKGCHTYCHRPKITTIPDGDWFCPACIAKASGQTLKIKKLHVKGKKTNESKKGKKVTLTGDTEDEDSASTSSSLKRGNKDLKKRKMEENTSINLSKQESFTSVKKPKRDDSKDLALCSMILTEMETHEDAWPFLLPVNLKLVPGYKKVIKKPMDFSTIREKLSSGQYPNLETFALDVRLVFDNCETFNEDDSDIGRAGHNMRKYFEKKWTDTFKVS
row,Compound,Potency
1,Cc1cccc(NC(=O)c2sc3nc4c(cc3c2N)CN(Cc2ccccc2)CC4)c1,inactive
2,CN(C)CCNS(=O)(=O)c1ccc(N2CCc3ccccc32)c([N+](=O)[O-])c1,"inconclusive: 56.2 µM [inhibitor, partial curve]"
3,CC12CCC(C(=O)Nc3ncc([N+](=O)[O-])s3)(OC1=O)C2(C)C (centres undefined),"inconclusive: 100 µM [inhibitor, single point]"
4,Fc1ccc(CSc2nnc(-c3ccccn3)o2)cc1,inactive
5,COc1ccc(C(CNC(=O)c2oc3ccc(C)cc3c2C)N2CCCCC2)cc1 (centres undefined),"inconclusive: 39.8 µM [inhibitor, partial curve]"
6,COc1cc(/C=N/Nc2ccc(S(N)(=O)=O)cc2[N+](=O)[O-])cc(OC)c1O,"inconclusive: 31.6 µM [inhibitor, partial curve]"
7,CCN(CCO)c1ccc(-n2c(N)c(C(=O)OC)c3nc4ccccc4nc32)cc1,"inconclusive: 89.1 µM [inhibitor, single point]"
8,CC(=O)Oc1ccc(C2(C)CC(C)(C)Oc3cc(OC(C)=O)ccc32)c(OC(C)=O)c1 (centres undefined),"inconclusive: 100 µM [inhibitor, single point]"
9,CC1(c2ccccc2)CC(C)(C)N(C(=O)CSc2nnc(N)s2)c2ccccc21 (centres undefined),"inconclusive: 89.1 µM [inhibitor, single point]"
10,Cc1cc(NC(=O)CCC(=O)N(Cc2cccs2)C(C(=O)NC2CCCC2)c2ccncc2)no1 (centres undefined),"inconclusive: 89.1 µM [inhibitor, single point]"
11,Cn1c(C=O)c(-c2ccc3cc[nH]c3c2)c2ccccc21,"inconclusive: 89.1 µM [inhibitor, single point]"
12,COc1ccc(N2CC(C(=O)Nc3nnc(SCC(=O)NCc4ccco4)s3)CC2=O)cc1 (centres undefined),active: 50.1 µM
13,O=C(COC(=O)c1ccc(O)cc1)Nc1ncc(Cl)cc1Cl,active: 79.4 µM
14,O=C(CCC(=O)c1ccccc1)NCc1ccccc1,inactive
15,COc1ccc(S(=O)(=O)c2c(O)c3ccc(C(=O)Nc4ccccc4F)cc3[nH]c2=O)cc1,inactive
16,CCC(C(=O)N1CCN(c2ccccc2F)CC1)n1nc(C)c2sc3ccccc3c2c1=O (centres undefined),inactive
17,O=C/C(=C\Nc1ccccn1)c1nc2ccccc2o1,active: 79.4 µM
18,CCn1cc(C2=NC(CCSC)CO2)c2ccccc21 (centres undefined),"inconclusive: 70.8 µM [inhibitor, single point]"
19,COc1ccccc1N1CCN(/N=C\c2ccccc2)CC1,"inconclusive: 56.2 µM [inhibitor, partial curve]"
20,CC(=C/c1ccco1)/C=N/N1CCN(c2ccccc2)CC1,"inconclusive: 35.5 µM [inhibitor, partial curve]"
21,N[C@@H](Cc1ccc(O)cc1)c1nnc([C@H](CCC(=O)O)NC(=O)C2CCNCC2)o1,"inconclusive: 3.98 µM [inhibitor, single point]"
22,CC(=O)C1=C(O)C(=O)N(c2ccc(Br)cc2)C1c1ccc(Cl)cc1 (centres undefined),inactive
23,CCNC(=S)N1CCN=C1Nc1nc(C)cc(C)n1,inactive
24,COc1ccc(C2C(C(C)=O)=C(O)C(=O)N2CCO)c(OC)c1 (centres undefined),"inconclusive: 89.1 µM [inhibitor, single point]"
25,Cc1ccccc1OCC(O)Cn1c(NCc2ccco2)nc2c1c(=O)[nH]c(=O)n2C (centres undefined),"inconclusive: 56.2 µM [inhibitor, partial curve]"

row,Compound,Potency
1,N#Cc1c(NC(=O)CSc2ccccn2)oc(-c2ccccc2)c1-c1ccccc1,"inconclusive: 89.1 µM [inhibitor, single point]"
2,Nc1ccc(-c2nc3c(ccc4ccccc43)[nH]2)cc1,"inconclusive: 89.1 µM [inhibitor, single point]"
3,COc1cc(NC(=O)c2nc3ccccc3nc2C)cc(OC)c1OC,inactive
4,O=c1[nH]c2cc3c(cc2cc1C(c1nnnn1CC1CCCO1)N1CCCCCC1)OCCO3 (centres undefined),"inconclusive: 89.1 µM [inhibitor, single point]"
5,Cc1ccc2c(c1)C(=O)CC1(CCCC1)O2,inactive
6,C=C(C)C(=O)Nc1ccc2c(c1)OCCOCCOCCO2,active: 11.2 µM
7,O=C1/C(=C\c2ccc(Br)o2)SC(=Nc2ccccc2)N1c1ccccc1,active: 8.91 µM
8,O=C(Nc1ccccc1)C1C2CCC3C(CCC21)C3(Cl)Cl (centres undefined),"inconclusive: 39.8 µM [inhibitor, single point]"
9,CCOC(=O)c1c(C)[nH]c(C(=O)OC)c1CCC(=O)OC,"inconclusive: 89.1 µM [inhibitor, single point]"
10,CCCCN(Cc1ccco1)S(=O)(=O)c1csc(C(N)=O)c1,"inconclusive: 70.8 µM [inhibitor, single point]"
11,Cc1ccc(C)n1-c1c(C(=O)NCCCN2CCN(c3ccc(F)cc3)CC2)sc2ncccc12,"inconclusive: 44.7 µM [inhibitor, partial curve]"
12,COCCCNC(=O)CC1Oc2ccccc2NC1=O (centres undefined),inactive
13,O=C(C1CCN(S(=O)(=O)Cc2ccccc2)CC1)N1CCN(c2ccc(F)cc2)CC1,inactive
14,Cc1cccc(C)c1-n1c(SCC(=O)Nc2ccc(C(=O)O)cc2)nnc1-c1cccc(S(=O)(=O)N(C)C)c1,"inconclusive: 100 µM [inhibitor, partial curve]"
15,O=C(NP(=O)(N1CCCC1)N1CCCC1)C1=C(N2CCOCC2)/C(=C/c2cccc([N+](=O)[O-])c2)CC1,active: 44.7 µM
16,CC1CN(C(=O)N2CCC(C(=O)NCCC3=CCCCC3)CC2)c2cc(Cl)ccc2O1 (centres undefined),"inconclusive: 70.8 µM [inhibitor, single point]"
17,COc1cccc(C=NCCNC(=O)c2nonc2N)c1O,inactive
18,COc1ccccc1C(=O)NNC(=O)C(=O)Nc1ccc(C)c(Cl)c1,inactive
19,N=c1sccn1CC(=O)N1N=C(c2ccc(Cl)cc2)CC1c1ccco1 (centres undefined),active: 79.4 µM
20,COc1ccc2[nH]cc(C(=O)CNc3nc(C)cs3)c2c1,active: 50.1 µM
21,COc1c(N2CCN(C(=S)NCc3ccccc3)C(C)C2)c(F)cc2c(=O)c(C(=O)O)cn(C3CC3)c12 (centres undefined),active: 79.4 µM
22,COc1ccc(C2/C(=C(\O)c3ccc4c(c3)OCCO4)C(=O)C(=O)N2Cc2cccnc2)cc1OC (centres undefined),inactive
23,Cc1ccc(Cl)cc1NCc1nnc2n1CCCCC2,inactive
24,CC(C)c1ccc2c(c1)C1(NN=C(c3ccccc3)S1)C(=O)N2 (centres undefined),active: 10 µM
25,CCN=C1S/C(=C\c2ccc(-c3cccc(C(=O)O)c3)o2)C(=O)N1CC,"inconclusive: 56.2 µM [inhibitor, partial curve, poor fit]"

row,Compound,Potency
1,CCOc1ccc(Cn2c(O)cc(=O)[nH]c2=O)cc1,inactive
2,CC(C)(C)N/N=C/c1cc(Cl)cc([N+](=O)[O-])c1O,"inconclusive: 89.1 µM [inhibitor, single point]"
3,Cc1nc2nc[nH]n2c(=O)c1CCC(C)C,"inconclusive: 89.1 µM [inhibitor, single point]"
4,Cc1ccc(N2C(=O)NC(C(F)(F)F)(C(F)(F)F)C3=C2CC(C)(C)CC3=O)cc1,"inconclusive: 89.1 µM [inhibitor, single point]"
5,COc1ccc(CN2C(=O)c3cccnc3C2Nc2ccc(OC)c(Cl)c2)cc1 (centres undefined),"inconclusive: 79.4 µM [inhibitor, single point]"
6,CCN1CCN(c2ccc(S(=O)(=O)N3CCOCC3)cc2NC(=O)/C=C/c2ccc([N+](=O)[O-])cc2)CC1,"inconclusive: 100 µM [inhibitor, single point]"
7,CC(C)[C@H](NC(=O)c1ccccc1Cl)C(=O)OCc1cc(=O)n2cc(Br)ccc2n1,"inconclusive: 89.1 µM [inhibitor, single point]"
8,COc1ccc(C(=O)NC(=S)Nc2ccccc2F)cc1,inactive
9,NCCN1CCN(S(=O)(=O)c2ccc([N+](=O)[O-])cc2)C=C1c1ccc(Cl)cc1,active: 56.2 µM
10,CCS(=O)(=O)c1ccc2oc(SCC(=O)NCc3ccccc3)nc2c1,inactive
11,Cc1onc(-c2c(F)cccc2Cl)c1C(=O)N1CCCC1,inactive
12,O=C(CCS(=O)(=O)c1cc2c(cc1Cl)NC(=O)CO2)NCCc1ccc(Cl)cc1,inactive
13,CCOCCCN1CN(S(=O)(=O)c2ccc(Cl)cc2)c2nc3ccccc3nc21,"inconclusive: 89.1 µM [inhibitor, single point]"
14,Cc1ncoc1C(=O)N1CCc2c([nH]c3ccccc23)C1c1ccccc1F (centres undefined),active: 50.1 µM
15,CCN(CC)C(=O)Cn1c(SCCOc2ccc(Cl)cc2)nc2ccccc21,"inconclusive: 79.4 µM [inhibitor, single point]"
16,S=C(Nc1ccccc1)Nc1nc2ccccc2n1CCOc1ccc(Cl)cc1,active: 7.08 µM
17,C/C(=C\C(=O)Nc1cscc1C)C(=O)O,inactive
18,COc1ccc(S(=O)(=O)Nc2ccc3c(c2)n(C)c(=O)n3C)cc1F,"inconclusive: 79.4 µM [inhibitor, single point]"
19,Cc1ccc(C2CC(c3ccc(Cl)cc3)=NNC2=O)cc1 (centres undefined),"inconclusive: 20 µM [inhibitor, single point]"
20,CN(Cc1ccccc1)C(=O)CCC1CCN(C(=O)c2ccccc2C(F)(F)F)CC1,inactive
21,CCN(/N=C/C=C/c1ccccc1)c1cc(=O)n(C)c(=O)[nH]1,"inconclusive: 89.1 µM [inhibitor, single point]"
22,C/C(O)=C(\N=Nc1cc(C)ccc1O)C(N)=O,"inconclusive: 56.2 µM [inhibitor, partial curve]"
23,CNC(=O)c1csc(-c2ccc(Cl)cc2)n1,inactive
24,COc1ccc(OCC(O)CNC(=O)c2sccc2Cl)cc1 (centres undefined),inactive
